From PubChem BioAssay AID686979 (National Center for Advancing Translational Sciences (NCATS), 2013)
Values joined by “and” are separate entries in the source; they are usually repeats but may differ in a detail not shown here. Equal values may be shown once. About 50,000 (12%) of roughly 420,000 compounds were called active. Inconclusive means that the source gave no clear call. Such entries were picked first, then a sample of the others. Calls come from the whole dose curve; as a rule, active = well fitted inhibition curve with a large enough effect; inconclusive = small, poorly fitted or top-dose-only effect; inactive = flat fitted curve, though single readings scatter. Where the call is inconclusive, the potency comes from a doubtful curve fit.
% is set by controls: 0 for no effect and ±100 for the full control effect; potency is the fitted concentration of half-maximal effect; tags give direction and shape of the fitted curve.

Experiment: qHTS for Inhibitors of human tyrosyl-DNA phosphodiesterase 1 (TDP1): qHTS in cells in presence of CPT; note: nearly all actives have a fitted effect of over 55% in size
Settings: chicken DT40 Tdp1-/-;hTDP1 cells + 20 nM CPT, ATP luminescence, 48 h; activity change, negative = growth inhibition: at 46.2 µM (top of the series)
How it was run: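 Chicken DT40 Tdp1-/- cells stably complemented with human TDP1 were seeded at 400 cells/well in medium containing 20 nM camptothecin, exposed to pin-transferred compounds, and grown at 37 °C for at least 48 hr. Viability was read as ATP luminescence.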
In the case of COC(=O)c1cccc(NC(=O)NC2CCCN2S(=O)(=O)c2ccc(Cl)cc2)c1 (stereo unspecified), the Potency is reported as inconclusive: 25.9 µM [inhibitor, partial curve, poor fit]. In the case of COc1ccc(C)cc1S(=O)(=O)N(C)CC(=O)NCc1ccccn1, the Potency is reported as “inactive”. With CCC(C(=O)NCc1ccc(F)cc1)N(CCc1ccccc1)C(=O)c1snc(C(N)=O)c1N (stereo unspecified) the Potency was inconclusive: 16.4 µM [inhibitor, single point]. With Cc1ccc(S(=O)(=O)N2CCCN(S(=O)(=O)c3ccc(C)cc3)CC2)cc1 the Potency was inconclusive: 25.9 µM [inhibitor, single point]. For COc1ccc2cc(C(=O)Nc3ccc(S(N)(=O)=O)cc3)sc(=O)c2c1OC, the Potency was “inactive”. With CC(=O)c1ccc(NC(=O)CSc2nnc3c(n2)[nH]c2ccccc23)cc1 the Potency was inconclusive: 18.4 µM [inhibitor, single point]. In the case of O=C(NCc1csc(-c2cccs2)n1)C1CC1, the Potency is reported as “inactive”. With CCC(C(=O)NCCCN1CCN(CCCNC(=O)C(CC)c2ccccc2)CC1)c1ccccc1 (stereo unspecified) the Potency was “inactive”. In the case of Cc1ccc(S(=O)(=O)N2CC3(O)CN(C(=O)OC(C)C)N(C(=O)OC(C)C)CC3(OC(=O)Nc3cccs3)C2)cc1 (stereo unspecified), the Potency is reported as inconclusive: 23.1 µM [inhibitor, single point]. For O=C(c1ccc2c(c1)OCO2)N1CCCc2ccccc21, the Potency was inconclusive: 18.4 µM [inhibitor, single point]. In the case of C[C@H](NC(=O)c1nc[nH]c1C(=O)N[C@@H](C)C(=O)OC(C)(C)C)C(=O)OCc1ccccc1, the Potency is reported as “inactive”. In the case of CCOC(=O)CC1COc2ccccc2N1C(=O)c1cccc([N+](=O)[O-])c1 (stereo unspecified), the Potency is reported as “inactive”. For C[C@@H](CO)NC(=O)c1ccc2c3n(nc2c1)-c1ccc(Cl)cc1CO3, the Potency was inconclusive: 29.1 µM [inhibitor, single point]. In the case of CCN(CC)CCN(C(=O)c1ccc(C(=O)c2ccccc2)cc1)c1nc2c(OC)cccc2s1, the Potency is reported as inconclusive: 20.6 µM [inhibitor, single point]. With CCOC(=O)N1CCN(CC(=O)Nc2cc(C)nn2-c2nc3ccccc3s2)CC1 the Potency was inconclusive: 29.1 µM [inhibitor, single point]. In the case of CCO[C@H]1OC(C(=O)N2CCN(C)CC2)=C[C@@H](c2csc3ccccc23)[C@@H]1CCCO, the Potency is reported as inconclusive: 29.1 µM [inhibitor, single point]. For COc1cccc(Cn2c(=O)c(-c3cn(C)c4ccccc34)nc3cnc(N4CCNCC4)nc32)c1, the Potency was active: 7.31 µM. In the case of C[C@@H]1[C@H](c2ccccc2)Oc2ccc(Cl)cc2S(=O)(=O)N1CC1CCCN1C(=O)OC(C)(C)C (stereo partly specified), the Potency is reported as inconclusive: 18.4 µM [inhibitor, single point]. In the case of COc1ccc(OC)c(NC(=O)Cc2coc3cc(C)cc(C)c23)c1, the Potency is reported as inconclusive: 29.1 µM [inhibitor, single point]. With O=C(CSc1ccc2nc(-c3ccccc3)cn2n1)Nc1ccccc1 the Potency was inconclusive: 29.1 µM [inhibitor, single point]. For CCC(C(=O)OCC(=O)c1c(N)n(CC(C)C)c(=O)n(C)c1=O)c1ccccc1 (stereo unspecified), the Potency was active: 20.6 µM. With O=C1CCC2(CCCCC2)N1 the Potency was “inactive”. With CCOC(=O)C1CCCN(CCC(=O)Nc2ccc(Br)c(C)c2)C1 (stereo unspecified) the Potency was inconclusive: 29.1 µM [inhibitor, single point]. For COc1ccccc1-c1cc2nc(NCCOc3ccccc3)ccn2n1, the Potency was active: 18.4 µM. In the case of CN(CC(=O)NCc1ccccc1)CC(=O)Nc1ccc(Cl)c(C(F)(F)F)c1, the Potency is reported as active: 14.6 µM. With Cc1ccc(/C=C2\SC(=S)N(/N=C/c3cc([N+](=O)[O-])ccc3O)C2=O)o1 the Potency was inconclusive: 14.6 µM [inhibitor, single point]. With COC(=O)c1sc(=S)n(-c2ccccc2OC)c1N the Potency was “inactive”. For CC(=O)Nc1cc2c(cc1NC(=O)Cn1nnc(-c3ccc(C)o3)n1)OCCO2, the Potency was “inactive”. In the case of O=C(CSc1nc2ccc(Nc3nc(N4CCOCC4)nc(N4CCOCC4)n3)cc2s1)Nc1ccccc1Cl, the Potency is reported as active: 20.6 µM. In the case of Cn1nc(C(=O)Nc2c(-c3ccccc3)nc3sccn23)c2ccccc2c1=O, the Potency is reported as active: 20.6 µM. For c1ccc(Cn2c(-c3ccccc3)nc3nc4ccccc4nc32)cc1, the Potency was active: 20.6 µM. With CCCCN(Cc1cc2ccccc2[nH]c1=O)S(=O)(=O)c1ccc(C)cc1 the Potency was inconclusive: 20.6 µM [inhibitor, single point]. For Cc1ccc(Cl)cc1N1CCN(C(=O)c2ccc3nc[nH]c3c2)CC1, the Potency was inconclusive: 7.31 µM [inhibitor, partial curve, poor fit]. With CCOC(=O)c1ccc(N2C(=O)c3n[nH]c(-c4cccs4)c3C2c2cccc(O)c2)cc1 (stereo unspecified) the Potency was active: 16.4 µM. For COc1ccc(N2CCN(C(=S)Nc3cccc(C)c3)CC2)cc1, the Potency was “inactive”. In the case of Clc1ccc(-c2nc3ncccn3c2Nc2ccc3c(c2)OCCO3)cc1, the activity change, negative = growth inhibition is reported as inconclusive: -32% [inhibitor]. With Cc1cc(C)n(-c2nnc(C)n2N)n1 the Potency was “inactive”. In the case of COc1ccc(N2CCN(C(=O)CCCCn3c(=O)[nH]c4ccsc4c3=O)CC2)cc1, the Potency is reported as “inactive and inconclusive: 18.4 µM [inhibitor, single point]”. In the case of COc1ccc(NC(=O)[C@@H]2[C@@H]3C(=O)N(C4CCCCC4)C(=O)[C@@H]3C3c4ccccc4C=CN32)cc1 (stereo partly specified), the Potency is reported as inconclusive: 29.1 µM [inhibitor, single point]. With COc1cc(=O)n2c(c1C(=O)NC(C)c1ccco1)CCN(C(=O)c1cccc(C)c1C)CC2 (stereo unspecified) the Potency was active: 0.164 µM. With O=C(CCC1N=C2c3ccccc3N=C(SCc3ccc(F)cc3)N2C1=O)N1CCN(c2ccccc2)CC1 (stereo unspecified) the Potency was inconclusive: 23.1 µM [inhibitor, single point]. For Nc1ncnc2c1cnn2-c1ccccc1, the Potency was “inactive”. For CS(=O)(=O)c1nncn1-c1ccccc1, the Potency was “inactive”. For O=C(NCC(O)c1ccc([N+](=O)[O-])cc1)Nc1ccccc1 (stereo unspecified), the Potency was “inactive”. For O=C(c1ccoc1)N1CCN(c2cc(-c3cccnc3)nc3cc(-c4cccc(Cl)c4)nn23)CC1, the Potency was active: 18.4 µM. For C=CCn1c2ccccc2c2nnc(SCCCn3c(=O)[nH]c4ccccc43)nc21, the Potency was inconclusive: 23.1 µM [inhibitor, single point].
